According to PubChem BioAssay AID1347120 (National Center for Advancing Translational Sciences (NCATS), 2019):
Among all 390,000 compounds or so, about 930 (0.24%) were called active. Inconclusive results (about 5%) are left out. The call rests on the fitted dose curve; in most records, active means well fitted activation curve with a large enough effect; inconclusive means small, poorly fitted or top-dose-only effect; inactive means no such curve, though single readings can be large or run the other way. A structure can be active in one record and inactive in another. A number of entries come with more than one value. They are shown here; other results are not. The source may hold further records. The values listed for one entry are repeated measurements in other runs, samples, wells, individuals or studies. A tag in brackets gives the origin of a value. A, B and so on number the origins entry by entry.

Test: qHTS for Suppressors of FUS Proteinopathy: Primary screen using FUS-linked yeast assay; further: nearly all actives have a fitted effect of over 55% in size
Conditions: S. cerevisiae FUS-expressing, OD600, 24 h; Potency: growth rescue; series mostly up to 76.6 µM
From the text: Several widespread neurodegenerative diseases, including Alzheimer disease, Huntington disease, Frontotemporal Lobar Degeneration (FTLD) and Amyotrophic Lateral Sclerosis (ALS), share a common pathological feature, namely accumulation of specific protein aggregates in diseased tissue. These diseases which is associated with protein misfolding (proteinopathies) have become increasingly problematic as the population ages and life expectancies are extended. Most proteinopathies are currently incurable, a situation confounded by the fact that the basis of neurodegeneration is generally poorly understood. There exists urgent and significant need to find therapeutics that can inhibit the toxicity associated with protein aggregation. […]
For this project, a yeast model of the FUS proteinopathies (a spectrum of neurodegenerative diseases that include ALS and a subtype of FTLD) was generated and employed. […] This model was validated to be suitable for quantitative HTS (qHTS) use for finding genetic or chemical factors that restore growth. […]
Four hundred fifty microliter of cultured yeast (in 20mL rich medium) provided by Dr. Shewmaker lab was incubated at 30C at 99% humidity for 3hr. […] Absorbance at 600nm was then read using the PerkinElmer ViewLux plate reader.
Potency means the concentration at half of the fitted maximal effect.

Row | Compound | Potency
1 | COc1ccc(S(=O)(=O)Nc2ccc(O)c(Sc3nc4ccccc4s3)c2)cc1 | inactive [sample A] and active: 25.1 µM [sample B]
